Test results taken from PubChem BioAssay (Tox21).
The inconclusive results got no clear call from the source; some entries with a clear call stand among them for comparison. Where the call is inconclusive, the potency comes from a doubtful curve fit. Calls of active or inactive are those of the source. Unless noted, calls come from the whole dose curve; as a rule, active = well fitted curve in the direction sought with a large enough effect in the repeat runs; inconclusive = weak or mixed curves; inactive = no such curve, though single readings can be large; an effect the other way counts as inactive or inconclusive.

Columns and labels:
[1] = target: Peroxisome proliferator-activated receptor gamma (Homo sapiens) (UniProt P37231); experiment: qHTS assay to identify small molecule antagonists of the peroxisome proliferator-activated receptor gamma (PPARg) signaling pathway (AID 743191; calls by dose curve; for all read-outs here: nearly all actives have a fitted effect of over 30% in size; for ratio activity, negative = inhibition: % is set by controls: 0 for no effect and ±100 for the full control effect); conditions: HEK293H PPARg-UAS-bla, beta-lactamase ratio, antagonist, 17 h; for Potency: ratio activity, negative = inhibition: at 62.6 µM (top of the series) unless noted
In short: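 GeneBLAzer PPARg UAS-bla HEK293H cells, 5 h post-plating, exposed to compounds 17 h at 37C. LiveBLAzer B/G FRET substrate added for 1 h at room temperature; beta-lactamase reporter read by fluorescence intensity.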

[2] = qHTS assay to identify small molecule antagonists of the peroxisome proliferator-activated receptor delta (PPARd) signaling pathway - cell viability counter screen (AID 743213); conditions: PPARd-bla HEK293H viability, CellTiter-Glo luminescence, 17 h; viability change, negative = cytotoxic: at 62 µM (top of the series) unless noted; note: nearly all actives have a fitted effect of over 50% in size; for viability change, negative = cytotoxic: % is set by controls: 0 for no effect and ±100 for the full control effect
In short: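 Luminescence from CellTiter-Glo, added after the bla read and incubated 30 min at room temperature, gives viability of HEK293H PPARd-bla cells exposed to compounds for 17 h at 37 C with 300 nM L165041.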

[3] = target: Peroxisome proliferator-activated receptor delta (Homo sapiens) (UniProt Q03181); experiment: qHTS assay to identify small molecule antagonists of the peroxisome proliferator-activated receptor delta (PPARd) signaling pathway (AID 743215; active = well fitted inhibition curve with a large enough effect in the signal ratio in the repeat runs, not every such curve was filed as active; inconclusive = weak or mixed curves, or effect the other way; inactive = no such curve, though single readings can be large or run the other way; the % refers to the signal ratio;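 note: cells stimulated with agonist L165041 at 300 nM final during compound exposure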; for ratio activity, negative = inhibition: % is set by controls: 0 for no effect and ±100 for the full control effect); conditions: HEK293H PPARd-UAS-bla, beta-lactamase FRET ratio, antagonist, 17 h; ratio activity, negative = inhibition: at 62 µM (top of the series) unless noted
In short: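 Cells: HEK293H with a UAS-driven beta-lactamase reporter responsive to PPARd. Compounds were co-added with L165041 (300 nM, final) and incubated 17 h at 37 C before a 2 h room-temperature FRET substrate step and fluorescence reading.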

[4] = target: Bile acid receptor (Homo sapiens) (UniProt Q96RI1); experiment: qHTS assay to identify small molecule antagonists of the farnesoid-X-receptor (FXR) signaling pathway (AID 743217; active = well fitted inhibition curve with a large enough effect in the signal ratio in the repeat runs, not every such curve was filed as active; inconclusive = weak or mixed curves, or effect the other way; inactive = no such curve, though single readings can be large or run the other way; the % refers to the signal ratio; for activity change, negative = inhibition: % is set by controls: 0 for no effect and ±100 for the full control effect); conditions: HEK293T FXR-UAS-bla, beta-lactamase ratio, CDCA-stimulated, 16 h; activity change, negative = inhibition: at 62.6 µM (top of the series) unless noted
In short: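 Cells carrying a UAS-driven beta-lactamase reporter (GeneBLAzer FXR-UAS-bla HEK 293T) were plated and rested 5 h at 37 °C. Compounds in DMSO were added alongside chenodeoxycholic acid agonist at 50 uM final and left 16 h at 37 °C before FRET substrate readout.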

[5] = qHTS assay to identify small molecule antagonists of the vitamin D receptor (VDR) signaling pathway - cell viability counter screen (AID 743225); conditions: VDR-bla HEK293T viability, CellTiter-Glo luminescence, 16 h; viability change, negative = cytotoxic: at 61 µM (top of the series) unless noted; note: nearly all actives have a fitted effect of over 50% in size
In short: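 HEK293T VDR-bla; cpd + 1a,25-(OH)2D3 3 nM final, 16 h 37C/5% CO2; B/G FRET substrate 2 h RT; then CellTiter-Glo 30 min RT, luminescence.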

[6] = qHTS assay to identify small molecule antagonists of the peroxisome proliferator-activated receptor gamma (PPARg) signaling pathway - cell viability counter screen (AID 743194); conditions: PPARg-bla HEK293H viability, CellTiter-Glo luminescence, 17 h, co-treated with 50 nM rosiglitazone; activity change, negative = cytotoxicity: at 62.6 µM (top of the series) unless noted; note: nearly all actives have a fitted effect of over 55% in size
In short: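 Cytotoxicity counter screen in PPARg-bla HEK293H cells, same wells as reporter assay. Compounds plus 50 nM rosiglitazone (final) for 17 h at 37 C, then viability read by CellTiter-Glo luminescence.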

[7] = qHTS assay for small molecule agonists of the antioxidant response element (ARE) signaling pathway (AID 743202; active = well fitted activation curve with a large enough effect in the signal ratio in the repeat runs, not every such curve was filed as active; inconclusive = weak or mixed curves, or effect the other way; inactive = no such curve, though single readings can be large or run the other way; the % refers to the signal ratio); conditions: HepG2 ARE-bla reporter, beta-lactamase FRET, 16 h; activation: at 73.3 µM (top of the series) unless noted
In short: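 HepG2 ARE-bla cells; 16 h treatment at 37 C; FRET-based beta-lactamase fluorescence read after 2 h substrate incubation at room temperature.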

[8] = qHTS assay for small molecule activators of the heat shock response signaling pathway (AID 743210; active = well fitted activation curve with a large enough effect in the signal ratio in the repeat runs, with a control signal flat, not every such curve was filed as active; inconclusive = weak or mixed curves; the % refers to the signal ratio); conditions: HeLa HSE-bla reporter, beta-lactamase ratio, 5 h; activation: at 62.6 µM (top of the series)
In short: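 Following overnight attachment, HSE-bla HeLa cells received test compounds for 5 h at 37 C; beta-lactamase activity was then detected via FRET substrate fluorescence.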

[9] = target: Peroxisome proliferator-activated receptor delta (Homo sapiens) (UniProt Q03181); experiment: qHTS assay to identify small molecule agonists of the peroxisome proliferator-activated receptor delta (PPARd) signaling pathway (AID 743212; calls by dose curve); conditions: HEK293H PPARd-UAS-bla, beta-lactamase FRET ratio, 17 h; activation: at 62.6 µM (top of the series) unless noted
In short: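 Tox21 library screened in GeneBLAzer PPARd UAS-bla HEK293H cells. After compound treatment at 37 C, a FRET-based beta-lactamase substrate was applied for 2 h and fluorescence recorded.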

[10] = target: Bile acid receptor (Homo sapiens) (UniProt Q96RI1); experiment: qHTS assay to identify small molecule agonists of the farnesoid-X-receptor (FXR) signaling pathway (AID 743220; active = well fitted activation curve with a large enough effect in the signal ratio in the repeat runs, not every such curve was filed as active; inconclusive = weak or mixed curves, or effect the other way; the % refers to the signal ratio); conditions: HEK293T FXR-UAS-bla, beta-lactamase FRET ratio, 16 h; activation: at 62.6 µM (top of the series) unless noted
In short: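 FXR-UAS-bla HEK 293T cells carrying a UAS-driven beta-lactamase reporter were plated for 5 h at 37C/5% CO2, then exposed to DMSO-dissolved Tox21 10K compounds for 16 h at 37C. A LiveBLAzer B/G FRET substrate was loaded for 2 h at room temperature before fluorescence reading.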

[11] = target: Vitamin D3 receptor (Homo sapiens) (UniProt P11473); experiment: qHTS assay to identify small molecule agonists of the vitamin D receptor (VDR) signaling pathway (AID 743222; calls by dose curve); conditions: HEK293T VDR-UAS-bla, beta-lactamase FRET ratio, 16 h; activation: at 63.5 µM (top of the series) unless noted
In short: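 Cells carrying a VDR-driven beta-lactamase reporter are seeded at 2,000 per well and rested 4 h. Compounds in DMSO are added for 16 h at 37C, and FRET substrate fluorescence is measured after 2 h at room temperature.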

[12] = target: Vitamin D3 receptor (Homo sapiens) (UniProt P11473); experiment: qHTS assay to identify small molecule antagonists of the vitamin D receptor (VDR) signaling pathway (AID 743223; active = well fitted inhibition curve with a large enough effect in the signal ratio in the repeat runs, not every such curve was filed as active; inconclusive = weak or mixed curves, or effect the other way; inactive = no such curve, though single readings can be large or run the other way; the % refers to the signal ratio); conditions: VDR-UAS-bla HEK293T, beta-lactamase FRET ratio, 16 h; activity change, negative = inhibition: at 61 µM (top of the series) unless noted
In short: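 Cells carrying a VDR-driven beta-lactamase reporter (VDR-bla) were co-treated with compound and 3 nM final 1alpha,25-dihydroxyvitamin D3 for 16 h at 37C; reporter activity was measured as FRET substrate fluorescence after 2 h at room temperature.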

[13] = qHTS assay to identify small molecule agonists of the vitamin D receptor (VDR) signaling pathway - cell viability counter screen (AID 743224); conditions: VDR-bla HEK293T viability, CellTiter-Glo luminescence, 16 h; activity change, negative = cytotoxicity: at 62.6 µM (top of the series) unless noted; note: nearly all actives have a fitted effect of over 50% in size
In short: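 Cells: VDR-bla, 2,000/well, settled 4 h. Treatment: compounds in DMSO, 16 h, 37C/5% CO2. Readout: CellTiter-Glo luminescence after 30 min RT.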

[14] = qHTS assay for small molecule activators of the heat shock response signaling pathway - cell viability counter screen (AID 743209); conditions: HSE-bla HeLa viability, CellTiter-Glo luminescence, 5 h; activity change, negative = cytotoxicity: at 62.6 µM (top of the series) unless noted; note: nearly all actives have a fitted effect of over 50% in size
In short: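 Cytotoxicity counter screen run in parallel with the HSE beta-lactamase reporter, using the same wells. HeLa HSE-bla cells received compound for 5 h at 37 C; ATP-based CellTiter-Glo luminescence was measured after 30 min at room temperature.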

[15] = qHTS assay to identify small molecule agonists of the farnesoid-X-receptor (FXR) signaling pathway - cell viability counter screen (AID 743218); conditions: FXR-bla HEK293T viability, CellTiter-Glo luminescence, 16 h; viability change, negative = cytotoxic: at 62.6 µM (top of the series) unless noted; note: nearly all actives have a fitted effect of over 45% in size
In short: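 Cells were seeded, left 5 h at 37 C and 5% CO2, then dosed with compound in DMSO for 16 h. After the beta-lactamase FRET read, CellTiter-Glo was added and luminescence measured 30 min later.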

[16] = qHTS assay to identify small molecule antagonists of the farnesoid-X-receptor (FXR) signaling pathway - cell viability counter screen (AID 743221; active = well fitted cell-killing curve with a large enough effect in the repeat runs, not every such curve was filed as active; inconclusive = weak or mixed curves, or effect the other way; inactive = no such curve, though single readings can be large or run the other way; note: nearly all actives have a fitted effect of over 50% in size); conditions: FXR-bla HEK293T viability, CellTiter-Glo luminescence, 16 h; activity change, negative = cytotoxicity: at 62.6 µM (top of the series)
In short: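 Multiplexed counter screen: viability of FXR-bla HEK 293T cells under agonist stimulation by chenodeoxycholic acid (50 uM, final) and test compound for 16 h at 37 C, measured by CellTiter-Glo luminescence in the reporter wells.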
Potency is the fitted concentration of half-maximal effect; tags give direction and shape of the fitted curve or compound fluorescence and quenching.

UniProt Q96RI1, sequence (Q96RI1 whole entry, looked up): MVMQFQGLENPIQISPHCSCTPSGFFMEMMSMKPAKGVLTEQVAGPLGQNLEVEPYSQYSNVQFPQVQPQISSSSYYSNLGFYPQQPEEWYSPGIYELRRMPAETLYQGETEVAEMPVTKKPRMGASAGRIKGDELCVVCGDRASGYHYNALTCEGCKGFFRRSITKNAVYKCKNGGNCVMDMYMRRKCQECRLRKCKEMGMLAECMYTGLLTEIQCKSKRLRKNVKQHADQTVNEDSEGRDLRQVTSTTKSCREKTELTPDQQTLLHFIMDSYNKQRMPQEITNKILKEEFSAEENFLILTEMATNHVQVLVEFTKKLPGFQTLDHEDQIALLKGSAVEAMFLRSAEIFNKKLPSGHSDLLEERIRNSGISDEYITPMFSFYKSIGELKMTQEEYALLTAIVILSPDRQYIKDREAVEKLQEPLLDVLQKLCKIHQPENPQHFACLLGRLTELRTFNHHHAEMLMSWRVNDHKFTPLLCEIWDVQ
UniProt P37231, sequence (P37231 whole entry, looked up): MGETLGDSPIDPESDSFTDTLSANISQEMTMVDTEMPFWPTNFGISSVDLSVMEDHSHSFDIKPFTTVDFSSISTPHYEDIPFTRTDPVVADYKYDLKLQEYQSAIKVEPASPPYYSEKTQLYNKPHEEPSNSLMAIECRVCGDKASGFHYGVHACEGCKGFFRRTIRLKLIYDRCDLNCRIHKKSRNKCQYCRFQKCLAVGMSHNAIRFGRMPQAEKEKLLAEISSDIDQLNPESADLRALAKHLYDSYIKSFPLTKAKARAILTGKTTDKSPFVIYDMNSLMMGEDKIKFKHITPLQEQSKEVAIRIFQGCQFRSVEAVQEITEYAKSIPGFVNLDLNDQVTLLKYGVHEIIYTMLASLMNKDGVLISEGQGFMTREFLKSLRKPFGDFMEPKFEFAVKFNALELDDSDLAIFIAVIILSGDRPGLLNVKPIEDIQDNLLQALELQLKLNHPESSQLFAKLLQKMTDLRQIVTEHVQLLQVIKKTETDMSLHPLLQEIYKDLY
UniProt Q03181, sequence (Q03181 whole entry, looked up): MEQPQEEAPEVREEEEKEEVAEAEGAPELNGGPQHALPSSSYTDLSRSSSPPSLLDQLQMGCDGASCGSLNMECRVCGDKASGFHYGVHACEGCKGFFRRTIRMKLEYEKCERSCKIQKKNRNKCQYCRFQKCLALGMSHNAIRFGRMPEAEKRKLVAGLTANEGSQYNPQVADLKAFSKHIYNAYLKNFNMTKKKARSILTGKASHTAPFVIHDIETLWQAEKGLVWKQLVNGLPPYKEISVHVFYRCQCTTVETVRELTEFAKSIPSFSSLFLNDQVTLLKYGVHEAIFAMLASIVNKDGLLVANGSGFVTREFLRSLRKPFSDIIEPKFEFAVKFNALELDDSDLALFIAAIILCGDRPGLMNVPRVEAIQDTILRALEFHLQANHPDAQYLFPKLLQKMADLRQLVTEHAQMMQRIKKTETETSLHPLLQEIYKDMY
UniProt P11473, sequence (P11473 whole entry, looked up): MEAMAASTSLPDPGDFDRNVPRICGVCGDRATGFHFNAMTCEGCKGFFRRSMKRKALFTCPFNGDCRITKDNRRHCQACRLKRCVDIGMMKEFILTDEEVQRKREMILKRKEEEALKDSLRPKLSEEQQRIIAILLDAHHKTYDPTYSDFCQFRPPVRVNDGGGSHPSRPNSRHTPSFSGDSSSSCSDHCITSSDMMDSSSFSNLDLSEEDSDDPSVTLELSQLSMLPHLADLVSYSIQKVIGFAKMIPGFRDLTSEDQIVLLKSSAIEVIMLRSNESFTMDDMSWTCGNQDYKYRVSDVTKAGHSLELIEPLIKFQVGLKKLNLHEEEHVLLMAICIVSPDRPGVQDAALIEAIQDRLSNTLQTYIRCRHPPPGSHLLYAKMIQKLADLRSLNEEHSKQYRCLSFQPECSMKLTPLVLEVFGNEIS

Row | SMILES | ratio activity, negative = inhibition ([1]; at 62.6 µM (top of the series)) | ratio activity, negative = inhibition ([1]; at 81.1 µM (top of the series)) | Potency [2] | ratio activity, negative = inhibition [3] | Potency [4] | Potency [5] | Potency [1] | Potency [6] | Potency [7] | Potency [8] | Potency [9] | Potency [3] | Potency [10] | Potency [11] | Potency [12] | Potency [13] | Potency [14] | Potency [15] | Potency [16]
1 | O=C(c1ccc(O)cc1)c1ccc(O)cc1O | inconclusive: -40.8% | inconclusive: -56.5% | inactive | inconclusive: -47.4% [at 80.4 µM] | inconclusive: 55.5 µM [inhibitor] and inactive | inconclusive: 0.35 µM [cytotoxic, full curve, poor fit] | – | – | – | – | – | – | – | – | – | – | – | – | –
2 | Oc1c(Br)cc(Br)c2cccnc12 | – | – | active: 3.35 µM | – | inconclusive: 10.6 µM [inhibitor, partial curve] | inconclusive: 2.13 µM [cytotoxic, full curve] | inconclusive: 21.1 µM [rising, partial curve, poor fit] | inconclusive: 6.68 µM [cytotoxic, full curve] | inconclusive: 9.44 µM | inconclusive: 1.55 µM | inconclusive: 4.22 µM [rising, full curve] | inconclusive: 4.73 µM [rising, full curve] | inconclusive: 13.3 µM [activator] | inconclusive: 10.6 µM [rising, full curve] | inconclusive: 15.1 µM [rising, partial curve] | active: 3.35 µM | – | – | –
3 | c1ccc(-c2ccc(C(c3ccccc3)n3ccnc3)cc2)cc1 (stereo unspecified) | – | – | inconclusive: 16.8 µM [cytotoxic, single point] | – | inconclusive: 29.8 µM [inhibitor, single point] | – | inconclusive: 29.8 µM [cytotoxic, single point] | inconclusive: 33.5 µM [cytotoxic, single point] | inconclusive: 23.7 µM [falling, partial curve] | inconclusive: 24.6 µM | – | active: 26.6 µM | inconclusive: 11.9 µM | – | – | inconclusive: 33.5 µM [cytotoxic, single point] | inconclusive: 33.5 µM [cytotoxic, single point] | inconclusive: 33.5 µM [cytotoxic, single point] | inconclusive: 29.8 µM [falling, single point]
